Results as given in publication PMC12405493, “Selective ubiquitination of drug-like small molecules by the ubiquitin ligase HUWE1” (Nature Communications, 2025).

Experiments:
[1] = target: T1, HUWE1^FL (Homo sapiens, UniProt Q7Z6Z7); assay: Targeted MS/MS of ubiquitinated inhibitors from HUWE1^FL-driven reactions (trypsin digest); assay type: biochemical; set-up: key: 'yes' indicates detection of compound-modified tryptic C-terminal ubiquitin peptides characteristic of the conjugated products listed in the left column; conditions: HUWE1^FL-driven reaction; + ATP
T1 construct: made in house; host or cells: HEK293T (transient transfection, anti-Flag purification, SEC)
Procedure: Samples for LC/MS/MS analyses of the ubiquitinated inhibitors from reconstituted HUWE1^FL-driven reactions were prepared by in-solution trypsin (Mass Spec Grade, Promega) digestion, instead of the gel-based LysC digestion procedure described above. […] In both cases, the samples were reduced and alkylated with 10 mM TCEP and 20 mM iodoacetamide at 37 °C in the dark for 60 min. An equal mixture of Sera-Mag SpeedBeads with hydrophilic and hydrophobic surfaces (GE Healthcare; 1:1 mix (v/v)) was washed twice with water and added to the sample at 50:1(w/w) resin-to-protein ratio. After adding ACN to a final percentage of 70% (v/v) and removing the supernatant, the resin was washed 3 x with 90% (v/v) ACN, resuspended in 50 mM triethylammonium bicarbonate (TEAB), containing sequencing-grade modified trypsin (1:25 (w/w) enzyme-to-protein ratio), and incubated at 37 °C, shaking at 1,000 rpm overnight. The resulting peptides were then dried, dissolved in 5% ACN/0.1% FA (both v/v), and measured on a hybrid quadruple-Obitrap Exploris480 mass spectrometer (Thermo Fisher Scientific) coupled to an Ultimate 3000 UHPLC system (Thermo Fisher Scientific). To this end, peptides were pre-concentrated and desalted on a trap column (PepMap, C18, 5 μm, 0.3 × 5 mm; Thermo Fisher Scientific) at 10 μL min^−1 in loading buffer (2% (v/v) ACN, 0.1% FA), followed by the separation on a self-made capillary column (ReproSil-Pur 120 C18-AQ, 1.9 μm, 300 × 0.075 mm; Dr Maisch GmbH), using a 63-min linear gradient from 10–38% of 0.08% (v/v) FA in 80% ACN/0.1% FA (both v/v) at 300 nl min^−1. Two MS measurements were performed, including full MS and targeted MS/MS scans (Full MS/tMS2). Full MS settings: detector type: Orbitrap; resolution: 120,000; m/z-range: 150–1300; RF lens (%)−50; AGC target: standard, maximum IT (ms): auto, data type: profile. tMS2 settings: isolation window (m/z): 1.4; activation type: HCD; HCD collision energy (%): 28; detector type: Orbitrap; Orbitrap resolution: 15,000; AGC target: standard; maximum IT (ms): 54; data type: profile. […]

[2] = target: T2, HUWE1^HECT (Homo sapiens, UniProt Q7Z6Z7); assay: LC-MS/MS of ubiquitinated inhibitors from HUWE1^HECT-driven reactions (LysC digest); assay type: biochemical; set-up: key: The identification of the specified C-terminal Ub-derived peptides, resulting from LysC protease digestions with no or one missed cleavage site, respectively, is indicated by 'yes'; conditions: no missed cleavage, + ATP
T2 construct: the isolated HECT domain of HUWE1 (HUWE1^HECT); made in house
T2 sequence (Q7Z6Z7 4038-4374 limits assumed): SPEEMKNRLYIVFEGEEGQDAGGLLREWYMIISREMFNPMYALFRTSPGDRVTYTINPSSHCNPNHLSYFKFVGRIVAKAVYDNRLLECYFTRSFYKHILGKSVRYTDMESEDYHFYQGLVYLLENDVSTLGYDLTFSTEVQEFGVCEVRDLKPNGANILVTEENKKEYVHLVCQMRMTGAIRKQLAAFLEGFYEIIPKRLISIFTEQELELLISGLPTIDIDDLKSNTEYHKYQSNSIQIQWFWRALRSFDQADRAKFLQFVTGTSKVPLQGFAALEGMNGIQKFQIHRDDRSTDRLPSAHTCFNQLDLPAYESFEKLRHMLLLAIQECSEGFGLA
Procedure: LC/MS/MS of ubiquitinated inhibitors from reconstituted HUWE1^HECT-driven reactions: Proteins were separated by SDS-PAGE, followed by Coomassie staining, and the protein band of interest was cut out. Gel slices were reduced with 10 mM DTT at 56 °C for 55 min, alkylated with 55 mM chloroacetamide at 26 °C for 20 min, and digested with 0.2 μg LysC protease (Mass Spec Grade, Promega) at 37 °C overnight. The extracted peptides were dried in a speed-vac and then resuspended in 2% (v/v) ACN, 0.1% (v/v) FA, and analyzed on an Orbitrap Exploris 480 mass spectrometer, coupled to a Dionex U3000 nanoHPLC system (Thermo Fisher Scientific). Peptides were pre-concentrated and desalted on a trap column (PepMap, C18, 5 μm, 0.3 × 5 mm; Thermo Fisher Scientific) at 10 μL min^−1 in the above solvent, followed by the separation on a home-made capillary column (300 × 0.075 mm, ReproSil-Pur 120 C18-AQ, 1.9 μm; Dr Maisch GmbH), using a 58-min linear gradient from 10–45% of 0.08% (v/v) FA in 80% (v/v) ACN) versus 0.1% (v/v) FA at 300 nl min^−1. The mass spectrometer was operated in data-dependent acquisition (DDA) mode with a top-20 method, using higher-energy collisional dissociation (HCD) with an isolation width of 1.6 m/z and a collision energy setting of 28%. MS spectra across an m/z-range of 350–1600 were acquired at a resolution setting of 120,000 FWHM at m/z 200, and MS/MS spectra at a resolution setting of 30,000. Normalized AGC target (%) and maximum injection time (IT) for MS and MS/MS were set to 100 in 60 ms and 100 in 120 ms, respectively. Fixed first mass and dynamic exclusion values were set to 100 m/z and 9 s, respectively. Raw files were processed using MaxQuant v.2.0.3.0 (Max Planck Institute of Biochemistry)[56]. MS/MS spectra were searched against a UniProtKB human database containing 20422 protein entries (March 2023), supplemented with the human Ub sequence via the Andromeda search engine. Precursor and fragment ion mass tolerances were set to 6 and 20 ppm, respectively. […]

Row | Compound | Detection of compound-Ub conjugate (compound-modified tryptic C-terminal ubiquitin peptides) [1] | Identification of compound-modified C-terminal Ub peptide ESTLHLVLRLRGG-compound [2]
1 | Cc1c(C(=O)Nc2ccc(CN)cc2)ncnc1N1CCC(C#N)(c2ccccc2)CC1 [BI8622] | yes | yes
2 | NCc1cccc(CNc2ncnc3c(N4CCN(Cc5ccccc5)CC4)ncnc23)c1 [BI8626] | yes | yes
3 | NCc1ccc(CNc2ncnc3c(N4CCN(Cc5ccccc5)CC4)ncnc23)cc1 [derivative 1, N-(4-(aminomethyl)benzyl)−8-(4-benzylpiperazin-1-yl)pyrimido[5,4-d]pyrimidin-4-amine] | yes | yes
